Measured values from publication PMC4336329 (PLoS ONE, 2015).
About 14,000 (4.5%) of roughly 310,000 compounds showed an effect of 50% or more. The effect is printed as a negative number. Some of the results follow.

Molecular target: human ether-à-go-go-related gene (hERG) potassium channel (human, UniProt Q12809)
Assay: primary screen, population patch clamp on CHO cells stably expressing hERG
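Further: peak tail current of the secondary pulse compared with the same well before compound.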

human ether-à-go-go-related gene (hERG) potassium channel, sequence (Q12809 whole entry, looked up): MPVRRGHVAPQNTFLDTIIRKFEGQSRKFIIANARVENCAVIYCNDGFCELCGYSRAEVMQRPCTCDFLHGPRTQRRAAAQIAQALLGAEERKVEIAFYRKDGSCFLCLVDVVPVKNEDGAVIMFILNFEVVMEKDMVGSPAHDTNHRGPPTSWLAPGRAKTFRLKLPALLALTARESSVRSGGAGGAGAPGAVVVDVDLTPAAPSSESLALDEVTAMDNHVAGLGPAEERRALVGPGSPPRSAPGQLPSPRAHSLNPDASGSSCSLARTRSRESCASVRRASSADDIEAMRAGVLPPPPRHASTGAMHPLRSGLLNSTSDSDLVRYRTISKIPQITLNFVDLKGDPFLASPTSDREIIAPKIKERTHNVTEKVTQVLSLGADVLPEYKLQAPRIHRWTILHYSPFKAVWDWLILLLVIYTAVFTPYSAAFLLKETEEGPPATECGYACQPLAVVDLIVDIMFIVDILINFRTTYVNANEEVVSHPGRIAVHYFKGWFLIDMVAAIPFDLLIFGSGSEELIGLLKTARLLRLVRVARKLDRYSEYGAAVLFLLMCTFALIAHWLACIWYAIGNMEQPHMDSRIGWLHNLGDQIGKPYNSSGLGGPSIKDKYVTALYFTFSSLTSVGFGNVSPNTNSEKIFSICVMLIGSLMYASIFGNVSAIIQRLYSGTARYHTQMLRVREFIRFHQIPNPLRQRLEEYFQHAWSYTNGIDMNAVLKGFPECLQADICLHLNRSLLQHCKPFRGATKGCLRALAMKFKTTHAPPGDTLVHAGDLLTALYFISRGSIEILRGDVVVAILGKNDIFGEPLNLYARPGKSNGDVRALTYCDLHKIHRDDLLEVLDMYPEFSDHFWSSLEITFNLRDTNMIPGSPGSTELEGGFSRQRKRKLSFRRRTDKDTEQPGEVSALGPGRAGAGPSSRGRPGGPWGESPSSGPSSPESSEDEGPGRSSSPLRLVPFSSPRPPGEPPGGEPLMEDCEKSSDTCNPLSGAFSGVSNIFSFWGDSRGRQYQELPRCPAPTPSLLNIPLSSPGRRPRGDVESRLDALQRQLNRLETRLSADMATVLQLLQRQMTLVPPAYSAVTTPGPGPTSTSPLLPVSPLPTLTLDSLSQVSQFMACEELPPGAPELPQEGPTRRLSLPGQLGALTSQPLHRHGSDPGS

Row | SMILES | hERG current change (%, negative = inhibition) at 10uM [%]
1 | CCCCC(=O)Nc1ccc(C(=O)N(CC)c2ccccc2C)cc1 | 15.3
2 | CCOc1ccc(CCNC(=O)CN2C(=O)NC3(CCCCC3C)C2=O)cc1OCC (stereo not shown) | 6.68
3 | Cc1sc2nc(-c3ccncc3)[nH]c(=O)c2c1-c1ccccc1 | -2.11
4 | Cc1ccc(NC(=O)C2CCCNC2=O)nc1 (stereo not shown) | 11.6
5 | COc1ccc(NC(=S)NNC(=S)Nc2cccc(C(F)(F)F)c2)cc1 | 10
6 | COc1ccc2c(c1)C(=O)CCC2c1ccccc1 (stereo not shown) | -22.6
7 | COc1ccc(NC(=O)Cn2nnc(C(=O)NCc3ccccc3)c2N)cc1Cl | -4.06
8 | CCCc1cc(=O)oc2c3c(c(Cl)cc12)OCN(CCCO)C3 | 12.6
9 | Cc1nnc(-c2cnn(C)c2N)n1CCCN1CCOCC1 | 29.1
10 | COc1cccc(C(c2c(C)[nH]n(-c3ccccc3)c2=O)c2c(C)[nH]n(-c3ccccc3)c2=O)c1OC | -10.1
11 | COc1ccccc1C(=O)NCc1ccncc1 | 0.175
12 | CCOC(=O)CN1C(=O)N[C@@H](c2ccc(Br)cc2)C(C(=O)OC)=C1C | -4.26
13 | CCCC(=O)NC(=S)Nc1ccc(NC(=O)C(C)C)c(OC)c1 | -17.7
14 | COc1ccc(C(C)(C)C)cc1NC(=O)C1CC=CCC1C(=O)O (stereo not shown) | 6.32
15 | CCN(CC)S(=O)(=O)c1ccc(NC(=O)C(C)N(c2ccccc2)S(C)(=O)=O)cc1 (stereo not shown) | -2.03
16 | CCS(=O)(=O)N1CCC(N2CCC(C)CC2)CC1.O=C(O)C(=O)O | -9.03
17 | CCCCNc1c2c3c(cccc3n(C)c1=O)C(=O)c1ccccc1-2 | -9.34
18 | COC(=O)Nc1[nH]ncc1[N+](=O)[O-] | 27.2
19 | CCOc1ccc(CN2CCC(n3nccc3NC(=O)c3ccccc3OC)CC2)cc1 | -82.8
20 | COc1ccccc1C(=O)Nc1c[nH]c(=O)[nH]c1=O | 10.6

Row | SMILES | hERG current change (%, negative = inhibition) at 10uM [%]
21 | NS(=O)(=O)c1ccc(CCNC(=S)NC2CCCC2)cc1 | 11.2
22 | CCOC(=O)/C(N=Nc1cc(C(=O)O)cc(C(=O)O)c1)=C(\O)CCl | -0.207
23 | COCCCNC(=S)N(CCO)Cc1cc2cc3c(cc2[nH]c1=O)OCCO3 | 17
24 | COc1cc(C2NC(=O)NC(c3ccccc3)=C2C(C)=O)ccc1OCC(=O)O (stereo not shown) | 1.92
25 | C[C@H](NC(=O)Nc1ccc2c(c1)OCCO2)C(=O)O | 24
26 | O=C(NCc1nc(-c2ccc(C(F)(F)F)cc2)no1)Nc1cc(Cl)cc(Cl)c1 | 7.7
27 | CCOC(=O)c1c(C)c(-c2ccccc2)n(CC(=O)NCCC(C)C)c1C | 2.14
28 | Nn1c(SCC(=O)Nc2ccc(OC(F)F)cc2)nnc(Cc2ccccc2)c1=O | -44.5
29 | COc1cccc(/C=N/NC(=O)c2cccc3ccccc23)c1OC | 7.78
30 | COc1cc(Cn2c(-c3nonc3N)nc3ccccc32)ccc1C | 2.95
31 | COc1ccc(CCNC(=O)C(C)OC(=O)c2cccs2)cc1OC (stereo not shown) | -15.5
32 | O=C(Cc1c(Cl)cccc1Cl)OCC(=O)N1CCN(C(=O)c2ccco2)CC1 | -14.9
33 | Cc1cc(C(=O)NCc2ccccc2)no1 | 12.8
34 | CCCC(c1nnnn1C(C)(C)C)N1CCN(Cc2ccccc2OC)CC1.Cl (stereo not shown) | -29.6
35 | Cc1cc(C)c(NC(=O)C2CCCCN2C)c(C)c1.Cl (stereo not shown) | -7.82
36 | CCC(C)c1ccc(NC(=S)N2CCN(C(=O)C3CCCO3)CC2)cc1 (stereo not shown) | -40.9
37 | O=C(NN1C(=O)c2ccccc2NC1c1cccnc1)c1ccc([N+](=O)[O-])cc1 (stereo not shown) | -37.5
38 | COc1ccc(C(=O)N2CCN(C3CCCCC3)CC2)cc1OC.O=C(O)C(=O)O | -73.6
39 | Cc1ccc(C(=O)NC(C(=O)NC2CCCC2)c2ccccc2)cc1 (stereo not shown) | 15
40 | Cc1sc(NC(=O)C2CSC3(C)CCC(=O)N23)nc1-c1ccc(F)cc1 (stereo not shown) | -23.5

Row | SMILES | hERG current change (%, negative = inhibition) at 10uM [%]
41 | O=C(CCCC(=O)N1CCCc2ccccc21)N1CCCc2ccccc21 | -29.2
42 | CN(CC(=O)Nc1ccc(F)cc1)C(=O)CSc1nncs1 | 15.1
43 | CCCN1/C(=C2/SC(=S)N(CC)C2=O)C=Cc2ccccc21 | 6.77
44 | CCCCN(CC)C(=O)CSc1nc2n[nH]c(C)c2c(=N)n1-c1cccc(C)c1 | -26.8
45 | Cc1nc(SCC(=O)N2CCCCC2)c2c(C)c(C)sc2n1 | -11.7
46 | COc1ccccc1C(=O)NC(CCSC)C(=O)NCc1ccncc1 (stereo not shown) | -1.93
47 | CC(=O)c1cccc(NC(=O)C2CCN(S(=O)(=O)c3cccs3)CC2)c1 | -0.951
48 | COc1ccc(CN2CCN(C(=O)CCC(=O)Nc3nnc(C(F)(F)F)s3)CC2)cc1F | -27.9
49 | Cc1ccc(C23OC(=O)C(C)(C)C2OC(=O)C3(C)C)cc1 (stereo not shown) | -3.28
50 | CN1CCN(C(=O)CCCOc2cc(=O)n(C)c3ccccc23)CC1 | 0.874
51 | Cc1cccn2c(=O)c3cc(C(=O)N4CCCC(C)C4)sc3nc12 (stereo not shown) | -0.439
52 | COc1ccc(NC(=O)CSc2n[nH]c(-c3ccncc3)n2)c([N+](=O)[O-])c1 | -7.72
53 | COc1cc(C)c(CNC2CCCCC2)cc1C | 0.374
54 | CCSc1nc(CC)c2c(c1C#N)CCCC2 | -7.06
55 | Cc1ccc(N(CC(=O)NCC2CCCO2)S(=O)(=O)c2ccccc2)c(C)c1 (stereo not shown) | 16
56 | Cc1cc(C)n(CC(O)Cn2ccc3ccccc32)n1 (stereo not shown) | -12.5
57 | C[C@@H](NC(=O)[C@@H]1Cc2ccccc2CN1)C(=O)NCc1ccco1 | 13.6
58 | CC(C)CC(=O)Nc1cccc(-c2csc(-c3ccccc3)n2)c1 | 10.4
